Out of some 370,000 compounds screened, about 500 (0.14%) were called active. The inconclusive results got no clear call from the source; some entries with a clear call stand among them for comparison. Calls come from the whole dose curve; as a rule, active = well fitted activation curve with a large enough effect; inconclusive = small, poorly fitted or top-dose-only effect; inactive = no such curve, though single readings can be large or run the other way. Potencies beside an inconclusive call are fits to weak or partial responses and may not hold up.
Test: qHTS of alpha-syn Inhibitors; note: nearly all actives have a fitted effect of over 65% in size; for growth rescue (activation): % of control where 0% means no effect
Settings: Yeast expressing alpha-synuclein, BacTiter-Glo, 24 h; Potency: growth rescue unless noted; growth rescue (activation): at 46.1 µM (top of the series) unless noted
How it was run: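 Rescue of yeast growth: cells expressing toxic alpha-synuclein, induced in galactose at OD600 0.02, incubated with compound 24 h at 30 C. ATP luminescence quantified growth; inhibitors of toxicity appear as activators.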
Potency is the fitted concentration of half-maximal effect; tags give direction and shape of the fitted curve.

Potency, inconclusive:
O=[N+]([O-])CC(c1ccc(F)cc1)c1c[nH]c2ccccc12 (stereo not drawn) 28.2 µM [activator, single point]
Cn1cccc1C(=O)NCCc1ccc(Cl)cc1 5.62 µM [activator, single point]
COc1ccc(C(NC(=O)C2CCN(C/C=C/c3ccc(OC(C)=O)c(OC)c3)CC2)c2ccccn2)cc1 (stereo not drawn) 5.62 µM [activator, single point]
OC(Cn1cncn1)(c1ccccc1)c1ccccc1 6.31 µM [activator, full curve]
COc1ccccc1N1CC(C(=O)NCCN2C(=O)S/C(=C\c3cccnc3)C2=O)CC1=O (stereo not drawn) 35.5 µM [activator, single point]
COCCNc1nc(Oc2ccc(Cl)c(Cl)c2)c2sccc2n1 31.6 µM [activator, single point]
CCCCCCCCN1C(=O)[C@H](CC(=O)NCc2cccs2)C[C@@]2(C(=O)OC)CCCCC=C12 35.5 µM [activator, single point]
CC(C)O/N=C1\C(=O)N(c2ccccc2)c2ccccc21 8.91 µM [activator, single point]
O=S(=O)(NC1C2CC3CC(C2)CC1C3)c1ccccc1 (stereo not drawn) 12.6 µM [activator, partial curve]
Cc1cc(C(=O)Nc2nc(-c3ccccn3)cs2)ccc1[N+](=O)[O-] 3.55 µM [activator, single point]
CCCN(CCC)C(=O)c1ccc2c(c1)N(Cc1ccccc1)C(=O)CS2=O (stereo not drawn) 15.8 µM [activator, single point]
COc1ccc2oc3cc(C)[n+]([O-])c(-c4ccc(Cl)cc4)c3c2c1 35.5 µM [activator, single point]
CCOc1cc(/C=C2\N=C(C)OC2=O)cc(Br)c1OCC(=O)OC 10 µM [activator, partial curve]
Cc1cc(C)n2nc(/C(C#N)=C/c3ccccn3)c(C#N)c2n1 11.2 µM [activator, single point]
COC(=O)c1cc(OC)c(OC)c(OC)c1N 22.4 µM [activator, single point]
Cc1ccc(NC(=O)c2c(NC(=O)Cc3ccccc3)sc3c2CCCC3)cc1 35.5 µM [activator, single point]
COc1ccc(NC(=O)CC(NCCc2ccccc2)C(=O)O)c(OC)c1 (stereo not drawn) 5.62 µM [activator, single point]
Cc1c(NC(=O)c2cc3ccccc3o2)cccc1-n1cnnn1 5.62 µM [activator, single point]
CC1(C(=O)OCC(=O)Nc2nnc(-c3ccccc3)o2)CC1(Cl)Cl (stereo not drawn) 22.4 µM [activator, single point]
COc1ccc(N2CCN(S(=O)(=O)c3cccc4cccnc34)CC2)cc1 31.6 µM [activator, single point]
CC1CCCCN1CC(=O)NC(c1ccccc1)c1ccccc1 (stereo not drawn) 15.8 µM [activator, single point]
Cc1noc(C)c1S(=O)(=O)NC(=O)C1(C)CCN1C(=O)Cc1ccc(Cl)cc1Cl (stereo not drawn) 3.55 µM [activator, single point]
CN(Cc1ccc(C(C)(C)C)cc1)C(=O)C1CSC2(C)CCC(=O)N12 (stereo not drawn) 3.55 µM [activator, single point]
O=C1NC(c2ccco2)Nc2sc3c(c21)CCN(Cc1ccccc1)C3 (stereo not drawn) 31.6 µM [activator, single point]
CS(=O)(=O)Nc1ccc(-c2ccc3nccn3c2)cc1 5.62 µM [activator, single point]
Cc1cc(C)c(-c2cc(NC(=O)COC(=O)c3ccc(CO)cc3)n(-c3ccccc3)n2)cc1C 3.55 µM [activator, single point]
O=C(Nc1cccc(OC(=O)c2ccco2)c1)c1ccco1 5.62 µM [activator, single point]
O=C(NCc1ccccc1)C(C1CC1)n1c(=O)c(-c2cc3ccccc3[nH]2)nc2ccccc21 (stereo not drawn) 15.8 µM [activator, single point]
COc1ccc(CNC(=O)CCNC(=O)N2CC(=O)Nc3ccccc32)cc1 22.4 µM [activator, single point]

Potency, active:
Cc1ccc(O)c(-c2cc(-c3ccccc3[N+](=O)[O-])[nH]n2)c1 22.4 µM
CCCCC(=O)NNC(=S)NC(=O)c1ccc([N+](=O)[O-])cc1 31.6 µM

Growth rescue (activation), inactive:
Cc1cc(C)n(-c2ccc(C(=O)OCc3nnc(-c4ccccc4)o3)cc2)n1 3.88%
COCCCNC(=O)CC(NS(=O)(=O)c1ccc(C)cc1)c1ccco1 (stereo not drawn) 0.288%
COC1=C/C(=C/c2c(N)n3nc(-c4ccc(C)cc4)sc3nc2=O)C=CC1=O -0.304%
O=[N+]([O-])c1ccc(Oc2cccc(Br)c2)c2ccncc12 6.12%
Cc1c(C)c2cc(Cl)c(O)c(CN3CCCC(C)C3)c2oc1=O (stereo not drawn) -0.936%
Nc1c(-c2ccccc2)c(CSc2nc3ccccc3[nH]2)nn1-c1cccc(C(=O)O)c1 -4.44%
O=C(c1ccc(-c2cccc([N+](=O)[O-])c2)o1)N1CCN(c2ccc([N+](=O)[O-])cc2)CC1 1.12%
Cc1cc(-c2ccc(C)c(S(=O)(=O)NCCc3ccc(S(N)(=O)=O)cc3)c2)on1 4.54%
O=C(O)/C=C/c1cnn(-c2ccccc2)c1 0.377%
CCOc1ccc(NC(=O)Cn2c(=O)n(-c3ccccc3)c(=O)c3ccc(C(=O)NCc4ccc5c(c4)OCO5)cc32)cc1 -3.44%
N[C@@]12CCc3nonc3[C@]1(O)CC(c1ccccc1)=[N+]2[O-] 3.48%
CC(=O)Nc1ccc(NC(=O)Cc2sc(-c3cccnc3)nc2-c2ccc(C)cc2)cc1 -0.596%

— PubChem BioAssay AID652106 (National Center for Advancing Translational Sciences (NCATS), 2013)
